Test results as given in paper PMC7578299, “The antiviral effects of baloxavir marboxil against influenza A virus infection in ferrets” (Influenza and Other Respiratory Viruses, 2020).

Columns and labels:
[1] = system: Influenza A virus A/Kadoma/3/2006 (H1N1); experiment: Experiment 2: infected ferrets, treatment starting at Day 2 p.i. (virus titer in nasal washes, body temperature); conditions: treatment from Day 2 p.i.; BXM 10 mg/kg twice daily 1 day, OSP 5 mg/kg twice daily 2 days
[2] = system: Influenza A virus A/Kadoma/3/2006 (H1N1); experiment: Experiment 1: infected ferrets, treatment starting at Day 1 p.i. (virus titer in nasal washes, body temperature); conditions: for body temperature changes from baseline over time (in words): from 8 hours up to Day 3 p.i., BXM 10 and 30 mg/kg twice daily 1 day, OSP 5 mg/kg twice daily 2 days, from Day 1 p.i.

Structure (SMILES) | virus titer in nasal washes on Day 3 p.i. (in words) [1] | body temperature changes from baseline over time (in words) [2] | virus titer in nasal washes ([2]; Day 2 p.i., BXM 10 mg/kg twice daily for 1 day from Day 1 p.i., undetectable level) [log10 TCID50/mL]
CCOC(=O)C1=C[C@@H](OC(CC)CC)[C@H](NC(C)=O)[C@@H](N)C1 [OSP, oseltamivir phosphate] | reduced virus titers on Day 3 p.i., but not significantly compared with vehicle | no effect on body temperature was observed | 
COC(=O)OCOc1c2n(ccc1=O)N([C@@H]1c3ccccc3SCc3c1ccc(F)c3F)[C@@H]1COCCN1C2=O [BXM, Baloxavir marboxil] | statistically significant reduction in virus titer by Day 3 compared with vehicle or OSP | significantly greater with BXM at doses of 10 and 30 mg/kg than vehicle and OSP 5 mg/kg | < 0.5
